Measurements published in patent US12460006B2, “Antibodies against integrin alpha 11 beta 1” (Momenta Pharmaceuticals, Inc., priority 2019, dated 2025).

T1: I domain of α11β1 (Homo sapiens, UniProt Q9UKX5)
T1 construct: An in-house generated I domain of α11β1 was used; made in house
T1 sequence (Q9UKX5 164-345 limits assumed): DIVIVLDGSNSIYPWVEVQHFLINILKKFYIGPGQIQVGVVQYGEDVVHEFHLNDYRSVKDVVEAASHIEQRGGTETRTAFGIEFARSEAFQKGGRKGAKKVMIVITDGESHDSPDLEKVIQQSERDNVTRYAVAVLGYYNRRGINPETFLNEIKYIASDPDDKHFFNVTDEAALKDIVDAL


Tests used:
[1] = system: CHO-K1 cells expressing human α11; assay: Cell adhesion inhibition (xCelligence), type I collagen; assay type: cell-based; conditions: for Inhibition of CHO-K1 adhesion to collagen: Yes/No
Description: 0.6×10^6 cells/mL were incubated with each antibody at a range of concentrations for 20 minutes at 37° C. E-Plate VIEW 96 PET plate coated with 100 ng/mL type I collagen or PBS overnight at room temperature was blocked in 3% BSA for 1 house at room temperature. After washing the plate with PBS, cell and antibody mixture was added to the wells and the plate was places into an xCelligence machine. Cell adhesion was recorded over 6 hours. The time point of maximum cell adhesion was used for comparison relative to control.
A CHO-K1 hu α11 cell line was used to assess the ability of mAbs to block α11β1-mediated binding to type I collagen. […] In the “Untreated” condition, cells were plated on type I collagen but no antibody was added and in the “Uncoated” condition, cells were seeded onto BSA-coated wells containing no type I collagen. Statistics were performed using one-way ANOVA followed by Dunnett's multiple comparisons test. […] Therefore, it is possible that these mAbs bind on an α11β1 domain that keeps the integrin in a low or intermediate affinity state. […] Nine human mAbs were also tested for their ability to inhibit the binding of human CHO-α11 cells to type I collagen.

I domain of α11β1 = target: T1, I domain of α11β1; assay: ELISA binding to in-house generated I domain of α11β1; conditions: for I Domain binding: Yes/No
Description: (§1) 0.25 μg/mL of target antigen (recombinant human or mouse α11β1) was plated in a 96-well plate over night at 4° C. Plates were washed (PBS with 0.1% Tween-20), blocked (PBS with 2% BSA and 0.05% Tween-20) for 1 hour at room temperature and incubated with a range of antibody concentrations for 1 hour at room temperature. Subsequently, plates were washed and incubated with biotinylated anti-rabbit/mouse/human IgG in a 1:1000 dilution buffer and incubated for 1 hour at room temperature. After washing the plates, Streptavidin HRP was added at 1:200 in dilution buffer and incubated for 1 hour at room temperature. Ultra TMB ELISA substrate solution was added and the plates incubated for 5 minutes on a plate shaker. The reaction was stopped by adding stop solution to each well and plates were read at 450 nm.
22 Data was also collected to determine whether antibodies of interest bind to the I domain of α11β1. An in-house generated I domain of α11β1 was used. […] Mouse antibodies 10-F23, 10-L15, 7-O8, 6-A12, 9-G05 and 9-E16 and rabbit antibodies 7-H12 and 2-D3 were also tested for binding against the in-house generated α11031 domain. FIGS. 3A and 3B show graphs illustrating binding data from exemplary mAbs.

[2] = system: Human Pulmonary Fibroblasts; assay: Fibroblast-to-Myofibroblasts Transition (FMT), αSMA expression; assay type: cell-based; conditions: for Inhibition of FMT: Yes/No
Description: Human Pulmonary Fibroblasts (ScienCell) were cultured in complete Fibroblast Growth Medium (ScienCell) until 80% confluent. Cells were washed and harvested using Accutase. Cells were seeded onto tissue culture-treated 96 well plates at 20,000 cells/well in complete Fibroblast Growth Medium. After 24 hours, cells were washed and starved in serum reduced medium for an additional 24 hours. After starvation, cells were treated with TGFβ-1 (R&D Systems) with or without anti-α11 antibodies. A polyclonal rabbit anti-human α11 antibody was used as a positive control. Appropriate IgG isotype controls were also included. After 48 hours, cells were harvested, fixed, permeabilized and stained with AlexaFluor488 Labeled Anti-αSMA (α-smooth muscle actin) (Invitrogen). Cells were acquired on a FACS Verse (Benton Dickson) to determine expression levels of αSMA. Data were analyzed by gating on single cells and determining the geometric Mean Fluorescence Intensity (gMFI) in the FITC channel for each sample. gMFI for each sample was normalized to the untreated control and presented as % inhibition.
In addition to the binding abilities described above, it is important for an anti-α11β1 antibody to inhibit the fibroblast-to-myofibroblast transition (FMT). It is now appreciated that myofibroblasts are a heterogeneous cell population, existing in different activation states, with the main function of producing and contracting collagen extracellular matrix (ECM). FMT is a multi-step event that is controlled by a changing mechanical environment in tissues undergoing repair. TGFβ is one of the potent factors that potentiates this process and alpha smooth muscle actin (αSMA) is one of the main markers that becomes overexpressed when fibroblasts are undergoing the transition to becoming myofibroblasts. The presence of αSMA enhances fibroblast contraction and guides myofibroblast activation through an intracellular feedback loop. Because αSMA is the main molecular marker of myofibroblasts, the ability of the novel anti-α11β1 mAbs to inhibit αSMA expression in TGFβ-induced FMT was tested.

α1β1, α2β1 and/or α10β1 = assay: Counter-screen for cross-reactivity to other collagen receptors; assay type: binding, human
Description: Wistar rats were immunized with recombinant human α11β1 protein. An enzyme-linked immunosorbent assay (ELISA) was used to test an immune response against target human and mouse proteins. Subsequently, cell fusion (by electro fusion) was performed with animals that produced a good immune response. All fused cells were plated in a 96-well plate and supernatants were screened by ELISA against soluble human and mouse α11β1. Positive clones were counter-screened against human α1β1, α2β1 and α10β1. […] Purified antibodies were then generated from the selected clones and heavy chain and light chain variable domain sequences were obtained from each purified antibody.
10 mice from 5 different strains were immunized with an appropriate mixture of human α11β1, mouse α11β1 and tolerance breaking protein. Plasma titers were evaluated by ELISA against a mixture of human and mouse α11β1. Popliteal, inguinal, and iliac lymph nodes were collected. ELISA-positive anti-human/mouse α11β1 hybridomas were expanded and subjected to a secondary screen against human and mouse α11β1, control HIS protein, and a counter-screen was performed against human […], α2β1 and α10β1. Supernatant IgG concentration was sufficient for functional screening. Selected hybridomas satisfying all the criteria were cloned and clonal hybridomas were confirmed by ELISA against human and mouse α11β1 and subsequently scaled-up and IgGs were purified. Heavy and light chain variable regions of selected hybridomas were then sequenced.
α11β1 belongs to a family of collagen receptors and has a relatively high homology to them. Therefore, the novel antibodies of this invention were counter-screened against α1β1, α2β1 and/or α10β1. Table 2 includes results of cross-reactivity to the other receptors.

human α11β1 = human α11β1 (Homo sapiens, UniProt Q9UKX5); assay: ELISA binding to recombinant human α11β1; conditions: binding Yes/No
human α11β1, sequence (Q9UKX5 23-1141 limits assumed): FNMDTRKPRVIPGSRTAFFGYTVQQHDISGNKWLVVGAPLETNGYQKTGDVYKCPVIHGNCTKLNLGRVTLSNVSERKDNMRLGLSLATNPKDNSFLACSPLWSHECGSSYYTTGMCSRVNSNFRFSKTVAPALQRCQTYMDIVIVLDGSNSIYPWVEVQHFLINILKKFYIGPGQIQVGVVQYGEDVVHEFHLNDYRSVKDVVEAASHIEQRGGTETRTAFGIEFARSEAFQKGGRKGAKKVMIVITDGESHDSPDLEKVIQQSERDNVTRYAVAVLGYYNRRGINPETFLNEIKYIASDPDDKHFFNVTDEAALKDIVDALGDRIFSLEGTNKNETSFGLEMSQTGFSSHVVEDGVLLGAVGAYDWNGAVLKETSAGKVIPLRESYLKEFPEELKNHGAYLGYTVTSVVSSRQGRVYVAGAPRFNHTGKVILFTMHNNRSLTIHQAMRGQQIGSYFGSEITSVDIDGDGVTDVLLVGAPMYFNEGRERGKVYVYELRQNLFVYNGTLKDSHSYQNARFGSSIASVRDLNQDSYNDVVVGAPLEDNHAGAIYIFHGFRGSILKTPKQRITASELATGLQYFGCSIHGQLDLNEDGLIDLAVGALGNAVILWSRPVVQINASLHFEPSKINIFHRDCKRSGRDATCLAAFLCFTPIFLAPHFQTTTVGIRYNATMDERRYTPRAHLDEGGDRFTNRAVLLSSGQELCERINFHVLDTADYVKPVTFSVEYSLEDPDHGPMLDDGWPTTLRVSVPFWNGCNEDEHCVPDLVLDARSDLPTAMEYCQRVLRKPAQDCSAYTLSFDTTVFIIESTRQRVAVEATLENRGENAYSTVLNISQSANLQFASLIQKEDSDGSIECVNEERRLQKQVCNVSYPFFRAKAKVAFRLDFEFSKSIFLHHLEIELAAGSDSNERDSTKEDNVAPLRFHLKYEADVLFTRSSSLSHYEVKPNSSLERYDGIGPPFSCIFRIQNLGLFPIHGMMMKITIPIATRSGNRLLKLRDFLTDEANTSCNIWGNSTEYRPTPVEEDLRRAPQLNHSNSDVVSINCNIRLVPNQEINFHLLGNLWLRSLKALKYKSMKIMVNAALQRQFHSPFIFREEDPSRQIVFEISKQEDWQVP
human α11β1, sequence (P05556 21-728 partner limits assumed): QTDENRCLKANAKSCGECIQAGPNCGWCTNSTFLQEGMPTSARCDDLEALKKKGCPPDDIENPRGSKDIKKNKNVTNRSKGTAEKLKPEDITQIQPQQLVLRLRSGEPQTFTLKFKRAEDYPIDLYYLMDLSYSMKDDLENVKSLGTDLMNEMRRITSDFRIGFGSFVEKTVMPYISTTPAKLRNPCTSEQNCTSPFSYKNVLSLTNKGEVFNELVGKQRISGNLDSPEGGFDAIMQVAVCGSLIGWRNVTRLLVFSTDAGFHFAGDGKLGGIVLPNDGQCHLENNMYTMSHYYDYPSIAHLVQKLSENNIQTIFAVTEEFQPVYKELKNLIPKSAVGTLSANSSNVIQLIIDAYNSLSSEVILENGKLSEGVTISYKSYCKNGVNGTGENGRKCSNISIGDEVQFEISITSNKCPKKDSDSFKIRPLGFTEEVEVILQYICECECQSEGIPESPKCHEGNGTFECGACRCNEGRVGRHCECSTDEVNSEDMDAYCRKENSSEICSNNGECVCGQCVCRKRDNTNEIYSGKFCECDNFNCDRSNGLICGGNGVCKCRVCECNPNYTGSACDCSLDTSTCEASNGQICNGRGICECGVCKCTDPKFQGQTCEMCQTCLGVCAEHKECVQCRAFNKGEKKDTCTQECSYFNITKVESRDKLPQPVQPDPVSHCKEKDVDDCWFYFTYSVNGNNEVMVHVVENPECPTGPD
Description: as §1

Molecule | Inhibition of CHO-K1 adhesion to collagen [1] | I Domain binding (I domain of α11β1) | Inhibition of FMT [2] | Off Target (α1β1, α2β1 and/or α10β1) | Human α11β1 ELISA (human α11β1) | inhibition of cell adhesion to type I collagen ([1]; CHO-K1 hu α11 cells) | I-domain binder (I domain of α11β1) | inhibition of αSMA expression / FMT ([2]; TGFβ-induced FMT)
6-P20: mouse anti-α11β1 mAb; VH SEQ ID NO: 141, VL SEQ ID NO: 142 (antibody, V domains shown) VH: EVQLQQSGPELVKPGASVKISCKASGYTFTDYYMNWVKQSHGRSLELIGDINPNNGGSNFNQKFRGKATLTVDKSSSTAYMELRSLTSEDSAIYYCARMGYWGQGTLVTVSA VL: DVVMTQTPLTLSVTIGQPASISCKSSQSLLHSDGKTYLNWMFQRPGQSPKRLIYLVSKLDSGVPYRFTGGGSGTDFTLQISRVETEDLGVYYCWQGTHFPRTFGGGTKLEIK | No | No | No | No | Yes | – | – | –
8-G15: mouse anti-α11β1 mAb; VH SEQ ID NO: 107, VL SEQ ID NO: 108 (antibody, V domains shown) VH: EVQLQQSGPELVKPGASVRISCKASGYTFTDYYIHWVKQKPGQGLECIGEIYPGTDNTYYSKKFRGKATLTADKSSDTAYMQLSSLTSEDSAVYFCARGDYYRGYFDVWGAGTTVTVSS VL: DVVMTQTSLTLSVTIGQPASISCKSSQSLLHSNGKTYLNWLLQRPGQSPKFLIYLVSKLESGVPDRFSGSGSGTDFTLKISRVEAEDLGVYYCLQSTHFPWTFGGGTKLEIK | Yes | No | Yes | No | Yes | strong blocker of cell adhesion; also recorded: decrease cell adhesion | not found to bind the I-domain | FMT inhibitors
10-K10: mouse anti-α11β1 mAb; VH SEQ ID NO: 139, VL SEQ ID NO: 140 (antibody, V domains shown) VH: EVQLQQSGPELVKPGASVKMSCKASGYTITDYYMMWLKQSHGKSLEWIGDINPYTGGTSYNQKFKGKATLTVDKSSSTAYMQLNSLTSEDSAVYYCARGAYWGQGTTLTVSS VL: DVVMTQTPLTLSVTIGQPASISCKSSQSLLDSDGKTYLNWLLQRPGQSPKRLIYLVSKLDSGVPDRFTGSGSGTDFTLKISRVEAEDLGVYYCWQGTHFPYTFGGGTKLEIK | No | No | No | No | Yes | – | – | –
2-A3: mouse anti-α11β1 mAb; VH SEQ ID NO: 131, VL SEQ ID NO: 132 (antibody, V domains shown) VH: EVQLQQSGPELVKPGASVKMSCKASGYTFTDYYMMWVKQSHGKSLEWIGDINPYNGGSSYNPKFKGRATLTVDKSSSTAYMQLNSLTSEDSAVYYCARGTYWGQGTLVTVSA VL: DVVMTQTPLTLSVTIGQPASISCKSSQSLLDSAGKTYLNWLLQRPGQSPKRLMYLVSKLDSGVPDRFTGSGSGTDFTLKISRVEAEDLGVYYCWQGTHFPYTFGGGTKLEIK | No | No | No | No | Yes | – | – | –
6-A15: mouse anti-α11β1 mAb; VH SEQ ID NO: 137, VL SEQ ID NO: 138 (antibody, V domains shown) VH: EVQLQQSGPELVKPGASVKMSCKASGYTITDYYMMWLKQSHGKSLEWIGDINPYTGGTSYNQKFKGKATLTVDKSSSTAYLQLHSLTSEDSAVYYCARGAYWGQGTTLTVSS VL: DVVMTQTPLTLSVTIGQPASISCKSSQSLLDSDGKTYLNWLLQRPGQSPKRLIYLVSKLDSGVPDRFTGSGSGTDFTLKISRVEAEDLGVYYCWQGTHFPYTFGGGTKLEIK | No | No | No | No | Yes | – | – | –
7-O8: mouse anti-α11β1 mAb; VH SEQ ID NO: 143, VL SEQ ID NO: 144 (antibody, V domains shown) VH: EVQLQQSGPELVKPGASVKMSCKASGYTFTDYYIHWVKQKPGQGLEYIGEIYPGSGNTYYNGKFRGKATLTADKSSSTAYMQLSSLTSEDSAVYFCGSGYFDYWGQGTTLTVSS VL: DVVMTQTPLTLSVTIGQPASISCKSSQSLLYSNGKTYLNWLLQSPGQSPKLLIYLVSKLESGVPDRFSGSGSGTDFTLKLSRVEAEDLGVYYCVQGTHFPFTFGSGTKLEIK | No | Yes | No | Yes | Yes | – | – | –
6-O17: mouse anti-α11β1 mAb; VH SEQ ID NO: 133, VL SEQ ID NO: 134 (antibody, V domains shown) VH: QVQLQQPGAELVKPGASVKLSCKASGYTFTSYWMHWIKQRPGQGLEWIGEINPSNGGSNYNEKFKSKATLTVDKSSSTAYMQLSSLTSEDSAVYHCKSRGYWGQGTTLTVSS VL: DVVMTQTPLTLSVTIGQPASISCKSSQSLLDSYGKTYLNWLLQRPGQSPKRLIYLVSKLDSGVPDRFTGSGSGTDFTLKISRVEAEDLGIYYCWQGTHFPHTFGSGTKLEIK | No | No | No | No | Yes | – | – | –

“Also recorded” adds a separate entry of the source.
